Source: the RNAGym collection of RNA variant scans (doi:10.1093/nar/gkz1192)
The source gives no read counts; variants with many changes may rest on few reads.

B1: CPEB3 Ribozyme (parent)
chain: UAACAGGGGGCCACAGCAGAAGCGUUCACGUCGCAGCCCCUGUCAGAUUCUGGUGAAUCUGCGAAUUCUGCUGUAUAUCUC

Variants of: B1
Assay: self-cleavage, relative activity (ratio to wild type); higher = more cleavage; in vitro, sequencing
Summary of the method: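 After error-prone PCR and barcoding, CPEB3 ribozyme mutant libraries were transcribed with T7 RNA polymerase at 37°C for 5 hours, then given 15 min with DNase I before an EDTA stop, and they cleaved during both steps. Reverse transcription with template switching preceded Illumina sequencing. Relative activity divides a variant's cleaved/total read fraction by the unmutated ribozyme's. At least 5 reads were required per variant, and three batches were averaged.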

Variant | self-cleavage
A5U U31C A45G U60G U78C | 0.11
A5U U31C A47G U48C U58C C59A | 0.1
A5U U31C A56U | 0.25
A5U U31C A64G | 0.83
A5U U31C A75G U80C | 0.61
A5U U31C U41G A75G U78C | 0.19
A5U U31C U49C G55C C62A A64G | 0.19
A5U U31C U51C A65G | 0.28
A5U U41A A45U C62U A64G | 0.14
A5U U41A A56G U67A | 0.18
A5U U41A A56U U60A U69A U80A | 0.11
A5U U41A A57G | 0.41
A5U U41A U74C | 0.47
A5U U41C A47G U67A U69C G73A U78C | 0.2
A5U U41C A56C | 0.83
A5U U41C A56G U67C | 0.23
A5U U41C A56U U67C | 0.29
A5U U41C C59A | 0.32
A5U U41C U49C A77U U80C C81U | 0.57
A5U U41C U72A | 0.89
A5U U41C U72C | 1.13
A5U U43A A56C U66A U72A | 0.25
A5U U43A G61C A64G A65G U80C | 0.17
A5U U43C U51A U67G G73A U74C C79U | 0.58

Variant | self-cleavage
A5U U43C U51C | 0.96
A5U U43C U51C G61A U76C | 0.6
A5U U43C U66C | 0.34
A5U U48A G52U U66C | 0.21
A5U U48A U60A U67C U72G | 0.12
A5U U48A U69C U72A | 0.1
A5U U48C U51A A57U U66A | 0.08
A5U U48C U74A | 1.25
A5U U49A U54C U72C U80C | 0.72
A5U U49C A77G | 0.46
A5U U49C C79A | 1.01
A5U U49C U58C | 0.1
A5U U51A A56U | 0.4
A5U U51A C62U A75G | 0.15
A5U U51A U69C | 0.73
A5U U54A U69G | 0.86
A5U U54C U58C | 0.42
A5U U54C U74A A75G | 1.25
A5U U54C U74C U80A | 1.2
A5U U58A U69A | 0.22
A5U U60A A77U | 0.8
A5U U60C C71U | 0.23
A5U U60C U66A | 0.16
A5U U60C U67A A75G U78C | 0.14

Variant | self-cleavage
A5U U67A U80C | 0.74
A5U U67C C79A | 0.24
A5U U69C G70A U74G | 0.26
A5U U72C A75U | 1.27
A5U U72C U78C | 1.19
A5U U76C U80A | 1.28
G6A A13C U26C A56U G63U A65G | 0.19
G6A A13G A18G A45G | 0.07
G6A A13G A28U U43A C71U | 0.08
G6A A13G A35G U41G | 0.12
G6A A13G G22U A64C U69C | 0.04
G6A A13G U43A U49C A57G A64U | 0.14
G6A A13U A18G U26A U31A G33U A75U | 0.03
G6A A13U A18U U54C U60C | 0.08
G6A A13U A28G A57G U72A | 0.06
G6A A13U C23A A56G | 0.27
G6A A13U C40U U72A U76C | 0.07
G6A A13U G24A A45U U54C A77G | 0.05
G6A A13U U26C C40U U48C | 0.23
G6A A13U U41A U69C U72C | 0.14
G6A A13U U43C U51C A57C U72A | 0.1
G6A A13U U76A | 0.31
G6A A15C A18C U41G | 0.05
G6A A15C A21G U26A | 0.2

Variant | self-cleavage
G6A A15C A21G U69A U74C U80C | 0.04
G6A A15G A18U U31C A75G | 0.04
G6A A15G A20G G33A U60C U72C | 0.07
G6A A15G A20G U43G U60A U72A A75G | 0.05
G6A A15G A28G U72C | 0.29
G6A A15G A45G | 0.3
G6A A15G A45G A64G U69A U78C | 0.06
G6A A15G C23A U31G U43C A56G U66A | 0.04
G6A A15G C27A U31C G42A | 0.04
G6A A15G C27U A56U | 0.03
G6A A15G U25C A28C A56G | 0.38
G6A A15G U25C A28C U49A A56G | 0.05
G6A A15G U25C A65G | 0.05
G6A A15G U26A U41G | 0.44
G6A A15G U26A U41G U54C | 0.23
G6A A15G U41C U60A | 0.36
G6A A15U A18C A20G A47G | 0.47
G6A A15U A18G U43A A57G C62U | 0.06
G6A A15U A18G U54C A57G | 0.23
G6A A15U A18U C39U U51G U58C | 0.16
G6A A15U A21U A35G U48C A56G C62U | 0.03
G6A A15U A35G U43A U49C U66C U78C | 0.04
G6A A15U G36A U41A A64C U69A | 0.07
G6A A15U U54G | 0.13

Variant | self-cleavage
G6A A18G A28G | 0.31
G6A A18G A28G U48C G52U U80A | 0.07
G6A A18G A28U | 0.24
G6A A18G A35U U51C A56G | 0.31
G6A A18G C27A C38U U76C U78C | 0.04
G6A A18G U25C A45G A75U | 0.03
G6A A18G U26C | 0.24
G6A A18G U41C | 0.32
G6A A18G U51C A56G A57G | 0.13
G6A A18G U51C A56G A57G U69C U78C | 0.06
G6A A18G U60C U80A | 0.08
G6A A18G U69C U72C U74C | 0.13
G6A A18G U72G | 0.06
G6A A18G U80A | 0.55
G6A A18U A20G C62U U80A C81U | 0.07
G6A A18U A21G C79G | 0.05
G6A A18U A57U | 0.37
G6A A18U C29G U31A U54A U72A U78C | 0.04
G6A A18U U25A A35G U60C C79A | 0.04
G6A A18U U74C A75G | 0.24
G6A A20G A21G U31C U78A | 0.28
G6A A20G A28G U72A | 0.23
G6A A20G A45U A47U A57U U69C U72C | 0.08
G6A A20G A47G C68G | 0.06

Variant | self-cleavage
G6A A20G G22A C44U A65U | 0.04
G6A A20G U43C A65U U74C U80A | 0.13
G6A A20G U48C U78C | 0.2
G6A A20G U49C G63C U67C | 0.15
G6A A20G U78C | 0.09
G6A A20U U31C U43C U49A | 0.06
G6A A20U U43A U54C U72C | 0.09
G6A A20U U72A | 0.16
G6A A20U U76C | 0.06
G6A A21C C44A G53U | 0.07
G6A A21G A35U A56U A57G U66C U78C | 0.05
G6A A21G A47G U54A | 0.16
G6A A21G A47U U72C A75G | 0.06
G6A A21G A64G | 0.05
G6A A21G G30U U41C | 0.3
G6A A21G G33A U69A | 0.43
G6A A21G U41A A64G | 0.07
G6A A21G U49C A56G U78C | 0.08
G6A A21G U49C G63C U67C | 0.07
G6A A21G U69A | 0.23
G6A A21U U48C A75U | 0.05
G6A A28G A35G A56G A64G U69C A75C | 0.04
G6A A28G A47G A75U U78C | 0.11
G6A A28G A56U U67C | 0.1

Variant | self-cleavage
G6A A28G C38U U41C | 0.29
G6A A28G U43C A56U G63A A64G U78C | 0.14
G6A A28G U43C A65G U66C | 0.15
G6A A28G U49C A56G | 0.23
G6A A28U A45U U54A A64U G73U | 0.06
G6A A28U G33U U48C | 0.06
G6A A28U U31G G36C U43A U74C A77G | 0.04
G6A A28U U41A A45U G52C | 0.11
G6A A35C G63A A65G | 0.08
G6A A35C U51C | 0.44
G6A A35G A57U | 0.43
G6A A35G C40A U78A | 0.38
G6A A35G U48C U49A A57G | 0.53
G6A A35G U49C A57G U69C | 0.13
G6A A35G U80C | 0.56
G6A A35U A57C | 0.05
G6A A35U G46A A56U | 0.05
G6A A35U U67C | 0
G6A A45G U72C | 0.52
G6A A45U U69C | 0.2
G6A A47G U49C | 0.26
G6A A47U U49C U69A U72G | 0.16
G6A A57G A64G | 0.16
